Measurements: ChEMBL document CHEMBL5606458, “ASAP - ZIKV NS2B-NS3 protease fluorescence single point” (2024)
Screen size: about 2,700 compounds; about 160 (5.9%) showed an effect of 50% or more. This is one part of the list.

Biological target: Nonstructural protein 3 (Zika virus) (UniProt A0A024AXB9)
[1] = PRVABC59, Concentration 50.0 uM, Number of replicates 1.0
[2] = PRVABC59, Concentration 15.0 uM, Number of replicates 1.0

Chain of UniProt A0A024AXB9 (A0A024AXB9 as listed by the source): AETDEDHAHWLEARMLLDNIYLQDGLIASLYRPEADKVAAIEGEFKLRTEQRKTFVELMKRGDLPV

O=Cc1ccc(N2CCC(C(=O)Nc3nnc(-c4ccncc4)s3)CC2)cc1
inhibition [1]: 1.3%

O=C(Nc1ccc(O)cc1)c1cccc(OCc2c(Cl)cccc2Cl)c1
inhibition (PRVABC59, Concentration 49.5 uM, Number of replicates 2.0, Standard deviation 0.3020634287044847 %): 8.92%
inhibition (PRVABC59, Concentration 99.01 uM, Number of replicates 2.0, Standard deviation 0.4769425042937671 %): 12.1%
inhibition (PRVABC59, Concentration 198.0 uM, Number of replicates 2.0, Standard deviation 0.005961250253380851 %): 17.1%

Cc1ccc(C(=O)NC[C@@H](O)CN2CCCC2)cc1OCCN
inhibition (PRVABC59, Concentration 49.5 uM, Number of replicates 2.0, Standard deviation 0.8034634963080326 %): 1.48%
inhibition (PRVABC59, Concentration 99.01 uM, Number of replicates 2.0, Standard deviation 0.5019541300740721 %): 5.86%
inhibition (PRVABC59, Concentration 198.0 uM, Number of replicates 2.0, Standard deviation 0.4278404142542113 %): 10.7%

O=C(Nc1cccc2ccc(O)cc12)c1cc(Cl)ccc1NS(=O)(=O)c1ccc(Oc2ccccc2Cl)cc1
inhibition [2]: 39.3%

O=Cc1ccc(N2CCC(C(=O)Nc3ccc(Cl)c(Cl)c3F)CC2)cc1
inhibition [1]: 23.5%

O=Cc1ccc(N2CCC(C(=O)N3CCN(c4cccc([N+](=O)[O-])c4)CC3)CC2)cc1
inhibition [1]: 20.3%

O=Cc1ccc(N2CCC(C(=O)Nc3ncccc3OCc3ccccc3)CC2)cc1
inhibition [1]: 22%

O=Cc1ccc(N2CCC(C(=O)NCCCn3nccc3C3CC3)CC2)cc1
inhibition [1]: 25.6%

C=CCN(C(=O)C1CCN(c2ccc(C=O)cc2)CC1)[C@H]1CCS(=O)(=O)C1
inhibition [1]: 27.6%

Cc1nc([C@H]2CCCNC2)[nH]c1C(=O)N1CC[C@H](Oc2ccc(C(N)=O)cc2)C1
inhibition (PRVABC59, Concentration 49.5 uM, Number of replicates 2.0, Standard deviation 1.6901316572191802 %): -1.6%
inhibition (PRVABC59, Concentration 99.01 uM, Number of replicates 2.0, Standard deviation 1.3004168395860143 %): 0.561%
inhibition (PRVABC59, Concentration 198.0 uM, Number of replicates 2.0, Standard deviation 1.4460471613470702 %): 2.32%

CN(C)Cc1ccc(CN(C)C(=O)c2cc(Cl)ccc2NS(=O)(=O)c2ccc(Oc3ccccc3Cl)cc2)cc1
inhibition [2]: 5.74%

CN(Cc1cccc2cccnc12)C(=O)C1CCN(c2ccc(C=O)cc2)CC1
inhibition [1]: 30.6%

Cc1nn(C[C@@H]2CC3(CC3)S(=O)(=O)N2)cc1C1CCNCC1
inhibition (PRVABC59, Concentration 49.5 uM, Number of replicates 2.0, Standard deviation 1.0998701435927791 %): -1.87%
inhibition (PRVABC59, Concentration 99.01 uM, Number of replicates 2.0, Standard deviation 1.1827229663045253 %): -1.5%
inhibition (PRVABC59, Concentration 198.0 uM, Number of replicates 2.0, Standard deviation 1.3815696059428009 %): 0.267%

O=C(CNC(=O)c1cc(Cl)ccc1NS(=O)(=O)c1ccc(Oc2ccccc2Cl)cc1)c1ccc([N+](=O)[O-])cc1
inhibition [2]: 33%

c1cncc(CN2CC[C@H](c3c[nH]c4ccccc34)C2)c1
inhibition (PRVABC59, Concentration 49.5 uM, Number of replicates 2.0, Standard deviation 1.5559964247741371 %): 1.47%
inhibition (PRVABC59, Concentration 99.01 uM, Number of replicates 2.0, Standard deviation 1.8994947363510455 %): 5.35%
inhibition (PRVABC59, Concentration 198.0 uM, Number of replicates 2.0, Standard deviation 2.09431466608259 %): 12.9%

CC(C)(C)OC(=O)N[C@H](C(=O)Nc1cccc(C(N)=O)c1)c1ccc(OCc2ccccc2)cc1
inhibition (PRVABC59, Concentration 49.5 uM, Number of replicates 2.0, Standard deviation 0.581616394206695 %): 5.19%
inhibition (PRVABC59, Concentration 99.01 uM, Number of replicates 2.0, Standard deviation 2.3700535103819584 %): 6.98%
inhibition (PRVABC59, Concentration 198.0 uM, Number of replicates 2.0, Standard deviation 2.011820976667005 %): 5.29%

Cc1[nH]nnc1CNC(=O)[C@]1(c2ccc(F)cc2)CCCNC1
inhibition (PRVABC59, Concentration 49.5 uM, Number of replicates 2.0, Standard deviation 1.12958832901972 %): -0.326%
inhibition (PRVABC59, Concentration 99.01 uM, Number of replicates 2.0, Standard deviation 1.362760310389359 %): -0.319%
inhibition (PRVABC59, Concentration 198.0 uM, Number of replicates 2.0, Standard deviation 0.37566590325190835 %): -0.812%

CCN(CCOc1ccccc1C)C(=O)C1CCN(c2ccc(C=O)cc2)CC1
inhibition [1]: 25.1%

O=C(Nc1ccc(I)cc1F)c1cc(Cl)ccc1NS(=O)(=O)c1ccc(Oc2ccccc2Cl)cc1
inhibition [2]: 67.5%

O=Cc1ccc(N2CCC(C(=O)Nc3ccc(N4CCOCC4=O)cc3)CC2)cc1
inhibition [1]: 15.6%

CC(C)(C)OC(=O)[C@H]1CCCN1C(=O)C1CCN(c2ccc(C=O)cc2)CC1
inhibition [1]: 22.1%

COCCN(Cc1c(C)nn(C)c1C)C(=O)C1CCN(c2ccc(C=O)cc2)CC1
inhibition [1]: 19.5%

C[C@@H](C(=O)c1cccc(Cl)c1)N(C(=O)c1cc(Cl)ccc1NS(=O)(=O)c1ccc(Oc2ccccc2Cl)cc1)C(C)(C)C
inhibition [2]: 14.5%

NCc1cn(C2CCN(c3nc(-c4ccccc4)cs3)CC2)nn1
inhibition (PRVABC59, Concentration 49.5 uM, Number of replicates 2.0, Standard deviation 1.0691457653779137 %): 1.26%
inhibition (PRVABC59, Concentration 99.01 uM, Number of replicates 2.0, Standard deviation 0.02782164046422328 %): 5.38%
inhibition (PRVABC59, Concentration 198.0 uM, Number of replicates 2.0, Standard deviation 0.8227253647207844 %): 15.4%

Cc1cc(CO)c2cccc(Cc3ccccc3C(=O)N3CCC(C(=O)O)CC3)c2n1
inhibition (PRVABC59, Concentration 49.95 uM, Number of replicates 2.0, Standard deviation 1.0591789629357544 %): -4.89%
inhibition (PRVABC59, Concentration 99.9 uM, Number of replicates 2.0, Standard deviation 2.3071221964090083 %): -5.26%

COc1cc(CNC(=O)c2cc(Cl)ccc2NS(=O)(=O)c2ccc(Oc3ccccc3Cl)cc2)ccc1O
inhibition [2]: 28.5%

O=C(NC1CCN(C(=O)C2CC2)CC1)c1cc(Cl)ccc1NS(=O)(=O)c1ccc(Oc2ccccc2Cl)cc1
inhibition [2]: 6.15%

O=C(Nc1cc(C(F)(F)F)ccc1Cl)c1cc(Cl)ccc1NS(=O)(=O)c1ccc(Oc2ccccc2Cl)cc1
inhibition [2]: 24.4%

O=Cc1ccc(N2CCC(C(=O)N(CCN3CCOCC3)Cc3ccco3)CC2)cc1
inhibition [1]: 18%

CNS(=O)(=O)NCCNC(=O)c1ccc(O)c(NC(=O)c2ccncc2F)c1C
inhibition (PRVABC59, Concentration 49.5 uM, Number of replicates 2.0, Standard deviation 2.056569128667992 %): -4.03%
inhibition (PRVABC59, Concentration 99.01 uM, Number of replicates 2.0, Standard deviation 5.343274953075567 %): -0.849%
inhibition (PRVABC59, Concentration 198.0 uM, Number of replicates 2.0, Standard deviation 0.6700231178809642 %): 3.9%

Cc1cc(O)c2cccc(Cl)c2n1
inhibition (PRVABC59, Concentration 99.9 uM, Number of replicates 2.0, Standard deviation 14.089623179297288 %): -6.85%

CC(C)(C)N(Cc1ccsc1)C(=O)C1CCN(c2ccc(C=O)cc2)CC1
inhibition [1]: 25.7%

Nc1ccc(-c2ccc3c(c2)B(O)OC3)cn1
inhibition (PRVABC59, Concentration 49.5 uM, Number of replicates 2.0, Standard deviation 1.6416065153888901 %): -0.883%
inhibition (PRVABC59, Concentration 99.01 uM, Number of replicates 2.0, Standard deviation 2.0812389013600248 %): -1.95%
inhibition (PRVABC59, Concentration 198.0 uM, Number of replicates 2.0, Standard deviation 1.5012983922906686 %): -3.72%

CCc1noc2ncc(S(=O)(=O)N3CCCN(c4ncccc4C(N)=O)CC3)cc12
inhibition (PRVABC59, Concentration 49.5 uM, Number of replicates 2.0, Standard deviation 0.01391082023211164 %): -0.993%
inhibition (PRVABC59, Concentration 99.01 uM, Number of replicates 2.0, Standard deviation 1.1426743564998976 %): 0.077%
inhibition (PRVABC59, Concentration 198.0 uM, Number of replicates 2.0, Standard deviation 2.187973087278847 %): 1.39%

O=Cc1ccc(N2CCC(C(=O)N3CCN(C(=O)[C@@H]4COc5ccccc5O4)CC3)CC2)cc1
inhibition [1]: 22.2%

O=Cc1ccc(N2CCC(C(=O)Nc3ccc(SC(F)(F)F)cc3)CC2)cc1
inhibition [1]: 23%

O=C(N[C@H]1C[C@@H]1c1ccc(F)c(F)c1)c1cc(Cl)ccc1NS(=O)(=O)c1ccc(Oc2ccccc2Cl)cc1
inhibition [2]: 25.4%

O=C(NCc1cccc(Cl)c1Cl)c1cc(Cl)ccc1NS(=O)(=O)c1ccc(Oc2ccccc2Cl)cc1
inhibition [2]: 32.7%

CSc1ncc(C#N)c(NC(=O)C2CCN(c3ccc(C=O)cc3)CC2)n1
inhibition [1]: 20.4%

O=Cc1ccc(N2CCC(C(=O)Nc3ccccc3OCC(F)(F)F)CC2)cc1
inhibition [1]: 22.1%

O=C(Nc1ccc(OCc2ccccn2)c(Cl)c1)c1cc(Cl)ccc1NS(=O)(=O)c1ccc(Oc2ccccc2Cl)cc1
inhibition [2]: 41.3%

Cc1cc(-n2nccc2NC(=O)[C@]2(c3ccc(F)cc3)CCCNC2)ncn1
inhibition (PRVABC59, Concentration 49.5 uM, Number of replicates 2.0, Standard deviation 3.3341951652888615 %): 3.08%
inhibition (PRVABC59, Concentration 99.01 uM, Number of replicates 2.0, Standard deviation 1.8407534934696543 %): 6.24%
inhibition (PRVABC59, Concentration 198.0 uM, Number of replicates 2.0, Standard deviation 2.0184955201845844 %): 11.4%

C[C@@H](c1cccc2ccccc12)N(C)C(=O)C1CCN(c2ccc(C=O)cc2)CC1
inhibition [1]: 26.9%

O=Cc1ccc(N2CCC(C(=O)NCc3cc(F)c(F)c(F)c3)CC2)cc1
inhibition (PRVABC59, Concentration 10.0 uM, Number of replicates 1.0): 27.3%

CNC(=O)c1nc(C)c(C)c(N2CC[C@@H](NC(=O)c3[nH]cnc3C(C)(C)C)C2)n1
inhibition (PRVABC59, Concentration 49.5 uM, Number of replicates 2.0, Standard deviation 2.081122365323892 %): -0.757%
inhibition (PRVABC59, Concentration 99.01 uM, Number of replicates 2.0, Standard deviation 1.432539517867814 %): 1.43%
inhibition (PRVABC59, Concentration 198.0 uM, Number of replicates 2.0, Standard deviation 2.8388126139814567 %): 4.59%

C[C@@H](CNC(=O)c1cc(Cl)ccc1NS(=O)(=O)c1ccc(Oc2ccccc2Cl)cc1)N(C)c1ccccc1
inhibition [2]: 24.5%

CN(C(=O)c1cc(Cl)ccc1NS(=O)(=O)c1ccc(Oc2ccccc2Cl)cc1)[C@H]1CS(=O)(=O)C[C@@H]1O
inhibition [2]: 1.21%

Cc1ccc(C(=O)N2CCC(NC(=O)c3cc(Cl)ccc3NS(=O)(=O)c3ccc(Oc4ccccc4Cl)cc3)CC2)cc1
inhibition [2]: 10.3%

Cc1cc(CO)c2cccc(C[C@H](NC(=O)Cc3c(C)c4c(=O)[nH]n(C)c4[nH]c3=O)C(=O)O)c2n1
inhibition (PRVABC59, Concentration 49.95 uM, Number of replicates 2.0, Standard deviation 1.4552620640117953 %): -3.13%
inhibition (PRVABC59, Concentration 99.9 uM, Number of replicates 2.0, Standard deviation 1.129082630057862 %): 1.42%

Cc1[nH]c(C#N)cc1C(=O)N(C)C1CCN(C(=O)c2ccc3c(C)n[nH]c3c2)CC1
inhibition (PRVABC59, Concentration 49.5 uM, Number of replicates 2.0, Standard deviation 3.083795132754788 %): -0.895%
inhibition (PRVABC59, Concentration 99.01 uM, Number of replicates 2.0, Standard deviation 3.688762314029368 %): 0.363%
inhibition (PRVABC59, Concentration 198.0 uM, Number of replicates 2.0, Standard deviation 2.4301229690473223 %): 2.36%

Cn1cc(NC(=O)c2ccccc2C(F)(F)F)c(-c2ccc(N)nc2)n1
inhibition (PRVABC59, Concentration 49.5 uM, Number of replicates 2.0, Standard deviation 1.6563133210019785 %): -3.24%
inhibition (PRVABC59, Concentration 99.01 uM, Number of replicates 2.0, Standard deviation 1.8102304086032768 %): -3.79%
inhibition (PRVABC59, Concentration 198.0 uM, Number of replicates 2.0, Standard deviation 1.7993335938018762 %): -1.78%

COc1cc(C(=O)NCCO)nc(N2CCNCC2)n1
inhibition (PRVABC59, Concentration 49.5 uM, Number of replicates 2.0, Standard deviation 2.487605622738481 %): -5.06%
inhibition (PRVABC59, Concentration 99.01 uM, Number of replicates 2.0, Standard deviation 3.0621706806019096 %): -6.15%
inhibition (PRVABC59, Concentration 198.0 uM, Number of replicates 2.0, Standard deviation 3.3799226836086955 %): -4.46%
